Drawing on the RNAGym collection of RNA variant scans (doi:10.1093/nar/gkz1192), this text covers self-cleavage for 34 variants.

Sequences and labels used below:
B1: CPEB3 Ribozyme (parent)
chain: UAACAGGGGGCCACAGCAGAAGCGUUCACGUCGCAGCCCCUGUCAGAUUCUGGUGAAUCUGCGAAUUCUGCUGUAUAUCUC

The source gives no read counts; variants with many changes may rest on few reads.

The data set covers variants of B1. Briefly: self-cleavage, relative activity (ratio to wild type); higher = more cleavage; in vitro, sequencing. The gist of the method: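 After error-prone PCR and barcoding, CPEB3 ribozyme mutant libraries were transcribed with T7 RNA polymerase at 37°C for 5 hours, then given 15 min with DNase I before an EDTA stop, and they cleaved during both steps. Reverse transcription with template switching preceded Illumina sequencing. Relative activity divides a variant's cleaved/total read fraction by the unmutated ribozyme's. At least 5 reads were required per variant, and three batches were averaged.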
As for CGACAGGGGGCCACGGCAGAAGCGUUCACGUCGCAGCCCCUGUCAGAUUCUGGUGAAUCUGCGAAUUCUGCUGUAUAUCUC, the self-cleavage is 0.57.

For CGACAGGGGGCCACGGCAGAAGCGUUCACGUCGCGGCCUCUGUCAGAUUCUGGUGAAUCUGCGGAUUCUGCUGUAUAUCUC, the self-cleavage worked out at 0.35.

On to CUACAGGGGGCCACAGCAGAAGCGUUCACGUCGCAGCCCCCGUCAGACCCUGGUGAAUCUGCGAAUUCUGCUGUAUAUCUC, for which the self-cleavage amounted to 0.25.

As to CGACAGGGGGCCACAGCAGGAGCGUUCACGUCGCAGCCCCAGUCAGAUUCUGGUGAAUCUGCGGAUUCUGCUGUAUAUCUC, the self-cleavage stood at 0.34.

Turning to AAACAGGGGGCCACAGCAGAAGCGUUCACGUCGCAGCCCCUGGCAGACUCUGGUGAAUCCGCGAAUUCUGCCGUAUAUCUC, the self-cleavage worked out at 0.23.

As to AAACAGGGGGCCACAGCAGAAGCGUUCACGUCGCAGCCCCUGUCAGAUACUGGCGAAUCUGCGAAUUCCGCUGUAUAUCUC, the self-cleavage worked out at 0.15.

As to AAACAGGGGGCCACAGCAGAAGCGUUCACGUCGCAGCCCCUGUCAGAUUCAGGUGAAUCUGCGUAUUCUGCUGUAUAUCUC, the self-cleavage came out at 0.26.

For the variant AAACAGGGGGCCACAGCAGAAGCGUUCACGUCGCAGCCCCUGUCAGAUUCUGGUGAAUCAGCGGAUUCCGCUGUAUAUCUC, the self-cleavage turned out to be 0.21.

As to CUACAGGGGGCCACAGCAGAAGCGUUCACGUCGCAGCCCCAGUCAGAUUCUGGAGAAUCUGCAAGUUCUGCUGUAUAUCUC, the self-cleavage was determined as 0.16.

As to CCACAGGGGGCCACAGCAGAAGCGUUCAAGUCGCAGCCCCCGUCAGAUUCUGAUGUAUCUGCGAAUUCUGCUGUAUAUCUC, the self-cleavage amounted to 0.09.

As to CUACAGGGGGCCACAGCAGGAGCGUUCACCUCGCAUCCCCUGUCAGAUUCUGGUGAAUCUGCGAAUUCUGCUGUAUAUCUC, the self-cleavage was found to be 0.05.

For the variant AAACAGGGGGCCACAGCAGAAGCGUUCACGUCGCAGCCCCUGUCAGAUUCGGGUGAAUCUGCGAAUCCAGCUGUAUAUCUC, the self-cleavage was found to be 0.23.

As for AAACAGGGGGCCACAGCAGAAGCGUUCACGACGCAGCCCCUGACAGAAUCUAGUGAAUCUGCGAAUUCUGCUGUAUAUCUC, the self-cleavage came to 0.33.

In the case of CACCAGGGGGCCACAGCAGAAGCGUUCACGUCGCUGCCCCUGUCAGAUUCUGGUGAAUCUGCGAAUUCUGCCGUAUAUCUC, the self-cleavage was found to be 0.84.

With AAACAGGGGGCCACAGCAGAAGCGUUCACGUCGCAGCCCCCGACAGAAUCUGGUGAAUCUGCGAAUUCUGCUGUACAUCUC, the self-cleavage was determined as 0.22.

For the variant AAACAGGGGGCCACAGCAGAAGCGUUCACGUCGCAGCCCCCGUCAGACUCUGGUGAAUCUGCGAAUUCUGCUGUAUAUCUC, the self-cleavage came out at 0.62.

As for CUACAGGGGGCCACAGCAGAAGCGUUCACGACGCAGCCCCAGUCAGAUUCUGGUGAAUCUGCGAAUUCCGCUGUACAUCUC, the self-cleavage amounted to 0.18.

For AAACAGGGGGCCACAGCAGAAGCGUUCACGUCGCAGCCCCUGCCGGAUUCUGGUGAAUCUGCGAAUUCUGAUGUAUAUCUC, the self-cleavage worked out at 0.12.

Turning to AAACAGGGGGCCACAGCAGAAGCGUUCACGUCGCAGCCCCCGUCAGAUUCUGGCGAAUCUGCGAAUUCUGCUGUAUACCUC, the self-cleavage was 0.89.

Turning to AAACAGGGGGCCACAGCAGAAGCGUUCACGUCGCAGCCCCAGUCCGGUUCUGGCGAAUCUGCGAAUUCUGCCGUAUAUCUC, the self-cleavage is 0.17.

As to CGACAGGGGGCCACAUCAGAAGCGUUCACGUCGCAGCCCCUGUCAGAUUCUGGUGAAUCUGCGAAUUCUGCUGUAUAUCUC, the self-cleavage was 0.36.

In the case of AAACAGGGGGCCACAGCAGAAGCGUUCACGUCGCAGCCCCUGUCAGAUUCCGGUAAAUCUGCGAACUCUGCUGUAUAUCUC, the self-cleavage is 0.25.

Regarding CACCAGGGGGCCACAGCAGGAGCGUUCACGUCGCAGCCCCUGUCAGAUUCUGGUGAAUCCGCGAAUUCUGCUGUAUAUCAC, the self-cleavage is 0.15.

AAACAGGGGGCCACAGCAGAAGCGUUCACGUCGCAGCCCCUGUCAGAUUCUGGUGAACCAGCGAACUCUGCUGUAAAUCUC: the self-cleavage was 0.18.

With AAACAGGGGGCCACAGCAGAAGCGUUCACGUCGCAGCCCCUGUCAGAUUCUGGUGAAUCUGCGAAUUCUGCUGCAUGUCUC, the self-cleavage is 1.19.

Regarding AAACAGGGGGCCACAGCAGAAGCGUUCACGUCGCAGCCCCUGGCAGAUUCUGGUGAAUCCGCAAAUUCUGCUGUAUAUCUC, the self-cleavage was determined as 0.09.

Take CGACAGGGGGCCACAGCGGAAGCAUUCACGUCGCAGCCCCUGUCAGAUUCUGGUGAAUCUGCGAAUUCUGCUGUAUAUCUC: the self-cleavage is 0.37.

CCACUGGGGGCCACAGCAGAAGCGUUCAAGUCGCAGCCCCCGUCAGAUUCUGAUGAAUCUGCGAAUUCUGCUGUAAAUCUC: the self-cleavage was found to be 0.65.

In the case of AAACAGGGGGCCACAGCAGAAGCGUUCACGUCGCAGCCCCUGUCAGAUUCCGGUGAAUCUGCGAAUUCUGCUGUACAUCCC, the self-cleavage amounted to 0.67.

Consider CGACAGGGGGCCACAGCGGAAGCGUACACGUCGCGGCCCCUGUCAGAUUCUGGUGAAUCUGCGAAUUUUGCCGUAUAUCUC, for which the self-cleavage is 0.09.

For the variant AAACAGGGGGCCACAGCAGAAGCGUUCACGUCGCAGCCCCUGACAGAUUCUGGCGAAUCUGCGAAUUCCGCAGUAUAUCUC, the self-cleavage came to 0.26.

For the variant CGACAGGGGGCCACAGCAGAAGCGUUCUCGUCGCAGCCCCUGUCAGAUUCAGGUGAAUCCGCGGAUUCUGCUGUAUAUCUC, the self-cleavage was 0.18.

As to AAACAGGGGGCCACAGCAGAAGCGUUCACGUCGCAGCCCCUGUCAGAUUCCGGAGAAUCUGCGAAUUCUGCUGUAUAUCUC, the self-cleavage was found to be 1.14.

Regarding AAACAGGGGGCCACAGCAGAAGCGUUCACGUCGCAGCCCCUGUCAGAUUCUGGCGAAUCUGCGAAUUCUGCUGUAUAUCAC, the self-cleavage was 0.92.
